# Results from the supplement of paper PMC5499739.
# Over roughly 16,000 sequences, “Z-score” has its median near -0.37; the highest 2% begin near 3.1. Some of the results follow.
# Tested on: RBM10 RRM1-ZnF-RRM2 (GST-tagged construct)
# Test: RNAcompete 7-mer binding Z-score; higher = stronger binding preference
# Method in brief: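 Bound RNA was identified by microarray hybridisation after GST-tagged RBM10 constructs (20 pmol) had been mixed with 1.5 nmol of a designed pool of 241 399 RNAs up to 41 nt, transcribed from microarray-derived DNA templates. Binding ran for 30 min at 4°C in 1 ml Hepes pH 7.8 buffer with KCl, NaCl, glycerol, DTT, BSA and glutathione Sepharose beads, with four 2-min washes at 4°C afterwards. For every heptamer motif, a one-sided Z-score for enrichment was computed across the probes that contained it.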
row,Sequence,RNAcompete 7-mer binding Z-score
1,GGGACAA,2.85
2,AGAGUAC,-0.256
3,UGAACUU,-0.581
4,CUAUCAA,-0.588
5,CAACGCG,-0.169
6,ACGGGAG,2.63
7,ACUAGGG,2.08
8,CGCUGUU,-0.89
9,UGUGAAU,0.00216
10,UUCAGUU,-0.566
11,UUUUCCA,-0.581
12,AUUGGCG,1.47
13,GCCUGGU,-0.398
14,UACAUUC,-0.861
15,CAGCCCU,-0.803
16,AAAAGGC,1.4
17,AGUGUUA,-0.0306
18,GGAUAUG,2.41
19,GGGUGUA,3.09
20,AGGAUGU,0.964
21,CGGAGAA,1.2
22,AGACGAC,-0.468
23,CCGGAUG,0.213

row,Sequence,RNAcompete 7-mer binding Z-score
1,GAGUUAU,0.0969
2,AUCGUGU,-0.351
3,CCCACGU,-0.595
4,UGUUCGC,-0.785
5,AGCAAUU,-0.526
6,CACACGU,-0.482
7,AACGCUC,-0.85
8,AGCAGAG,1.55
9,UUUUGGU,-0.0161
10,GGUUCGC,-0.125
11,UAGUGCC,-0.351
12,GAUAGCU,-0.118
13,AUAUCCA,-0.53
14,AUAGGCG,1.16
15,CAAACUU,-0.781
16,UAUCUGA,-0.712
17,GGCUAUG,0.476
18,CACUAAU,-0.73
19,CAUUGUC,-0.708
20,AAGUGUG,0.771
21,UACUCUU,-0.854
22,GUGAUGA,0.727
23,GGUAUGU,1.33

row,Sequence,RNAcompete 7-mer binding Z-score
1,CUCCUUU,-0.843
2,GUUACCC,-0.413
3,CGUAUUG,-0.195
4,GGUGGAC,2.45
5,UGCCAUA,-0.69
6,AAUAGAA,0.68
7,UUAGUUA,-0.329
8,CCGAUAG,-0.522
9,CGCAAUG,-0.169
10,UCCAUUU,-0.872
11,CUCAAGC,-0.763
12,CAUAGAC,-0.646
13,AGCGGAA,2.02
14,GGUCUAA,-0.0598
15,CACCUUC,-0.854
16,CGGGAUC,0.774
17,ACUAGUG,-0.027
18,UUCGGAA,0.0349
19,GCGCACA,-0.38
20,UCACAGA,-0.242
21,GCAUCCC,-0.326
22,CCAAGGG,1.05
23,CAACUGA,-0.497

row,Sequence,RNAcompete 7-mer binding Z-score
1,AUCCGAC,-0.635
2,CUAGGCG,-0.00877
3,UUCCUAA,-0.704
4,UAAAGUU,-0.355
5,UAUGUUC,-0.61
6,CUAGCCG,-0.77
7,GUAGAUG,1.67
8,UGGCGCU,0.075
9,UUUCCGU,-0.646
10,UACAGUG,0.25
11,CAGGCUG,0.417
12,GCUUAUC,-0.69
13,AUUCUUU,-0.683
14,UUAUCAU,-0.668
15,AACUCAU,-0.73
16,CCUGGCA,-0.508
17,UACCGGG,0.658
18,GAAUUAG,0.723
19,UAGUGUG,0.603
20,GAGGGGC,2.44
21,CUAAGUU,-0.439
22,ACUUAGA,-0.53
23,CAGCUAA,-0.468

row,Sequence,RNAcompete 7-mer binding Z-score
1,CGAAGUC,-0.635
2,UUUUCCU,-0.81
3,GAGCUGU,-0.227
4,GUAGCAG,0.931
5,AUCACGA,-0.406
6,CGACGGC,0.126
7,GCCCGUG,-0.373
8,AUAAGCU,-0.391
9,CCAUUAU,-0.905
10,UAUGAGC,-0.154
11,GAAACCG,-0.122
12,AGGCCUC,-0.828
13,UACGUUG,-0.187
14,UAGGCCU,-0.595
15,CUAAGAU,-0.453
16,GGAGGUU,2.23
17,GCCCUUA,-0.766
18,UAAUAAG,0.0313
19,UUCUCUA,-0.806
20,GUAUCAG,0.294
21,GUAAUAG,0.508
22,UAAGUCC,-0.719
23,UAUUAUC,-0.537

row,Sequence,RNAcompete 7-mer binding Z-score
1,UUCUACC,-0.883
2,UUGGAAU,0.57
3,UCACGGA,0.00216
4,CGCGCGU,-0.362
5,AUUUCUU,-0.788
6,AAGGAUU,1.71
7,AUGGUGC,0.789
8,ACUUCUA,-0.999
9,UUCUAGU,-0.551
10,UGUUCUG,-0.704
11,GUCUAGC,-0.581
12,GAUGUUU,-0.296
13,GUUCGAU,-0.519
14,UGGUUCU,-0.431
15,AGGCCAA,-0.202
16,UGUCUGA,-0.65
17,UAUGUAU,-0.34
18,CUUAAUC,-0.905
19,CAUUCGU,-0.694
20,CCACGGU,-0.355
21,UUGUCGU,-0.551
22,UGUUCUU,-0.792
23,GCUAUGG,0.709

row,Sequence,RNAcompete 7-mer binding Z-score
1,GCGCUAG,-0.0816
2,GGGAGGU,3.39
3,UAAUUCA,-0.409
4,GACUGAC,-0.409
5,CGCUCCG,-0.777
6,UUGUUCG,-0.486
7,ACCCGCC,-0.89
8,UUCACCC,-0.843
9,CGAACAU,-0.428
10,CUUUUAC,-0.785
11,UGGCUAU,-0.00148
12,CAUCUGU,-0.854
13,CUGGCAA,-0.435
14,UCUCUUG,-0.679
15,GACUAGA,-0.122
16,CUGGGAA,1.36
17,UCUUACA,-0.723
18,GCGCUCU,-0.639
19,CUGCCUA,-0.879
20,CGAGACA,-0.118
21,GCCACUU,-0.992
22,CAGGCGG,1.96
23,CCCUAUG,-0.836

row,Sequence,RNAcompete 7-mer binding Z-score
1,UAUUCCC,-0.795
2,AUCCAUA,-0.752
3,ACACUUG,-0.602
4,UGGGAUA,2.85
5,ACCGAAU,-0.653
6,CCGCUGA,-0.723
7,AACGCAG,0.0277
8,AAGUAGG,2.79
9,AAAAUAU,-0.333
10,CCGCACG,-0.61
11,UUGCAAG,-0.213
12,UGUACUU,-0.715
13,UCCAGCG,-0.428
14,UAAGAUU,-0.413
15,CUUAUUG,-0.777
16,UGUGACU,-0.242
17,UUGUAGU,-0.322
18,UGCUAUA,-0.515
19,UAUUUAU,-0.573
20,UCCACGC,-0.734
21,AGCUAAA,-0.256
22,GCAGUUG,0.352
23,CCCGUUG,-0.69
